Measured values taken from publication PMC12136788.
The list shows a part of the results.

B1: 163926216_163943708_1166_3pUTR_ENSMUSG00000018209_ENSMUST00000018353|mouse|control|control (ssRNA)
RNA: GGGAGUUCUACAGUCCGACGAUCCUUCUUUUCAUGGUUCCUUCCUCUUCCUCGUCCUCCGUGUUGAUCACCAUGGUGCCCAGCUGGGACGGCAACGUGUCACCGUGCUCAAUCAUAGUAUUGGCUCCUCCGCUCAUCGUGCUGCAACAGAGGAUUGAGCAUCA
B2: chr1:163117127:163117128:-_ENSG00000143248_ENST00000313961|hu_mus|hu_hu_hu_mus_False|1_98 (ssRNA)
RNA: GGGAGUUCUACAGUCCGACGAUCUGCUACAAAGGAUGGAGGAAAUAUCACAGGGCAACUUUUGGAAGCCUGACCAGAUGACUACUUGAUUAGCUCCUUAUAAAAUUCAGAGCGCACAAAGCGGGGCAGAGAAUCCUUUUCCAUCAACAGAGGAUUGAGCAUCA
B3: chr2:155494191:155494192:-_ENSMUSG00000038324_ENSMUST00000041059|mus_hu|FALSE|FALSE (ssRNA)
RNA: GGGAGUUCUACAGUCCGACGAUCUUCAUCACUUAUUUUCAGUUUCUGUCCCCGGAUAGAGAUCGUAGGCCUCAUAAGAAUUUCUACAAGAAGAUCAACACCUCCAAACAAGUCAAAAAUGUAAGUAUUUGGAUAAGUGGUUUCCAACAGAGGAUUGAGCAUCA
B4: 183121975_183127770_906_CDS_ENSMUSG00000038733_ENSMUST00000162963|mouse|control|control (ssRNA)
RNA: GGGAGUUCUACAGUCCGACGAUCCACUUCAUUACAAUGCUCUGUAAGUAUCUGUUGAGUGUAACAGGGAAACUGCCUCCUACUACAAACAUGAUCUAUAAGUAGAGACACAGAAUCUAGAUUAUUGUCAAGUUUGGUAUUGUGCAACAGAGGAUUGAGCAUCA
B5: chr1:225611761:225611762:-_ENSG00000143815_ENST00000272163|hu_mus|hu_hu_hu_mus_True|18_98 (ssRNA)
RNA: GGGAGUUCUACAGUCCGACGAUCCCAGGCCAUCGGCCUCUUACCACUUCACCCUCAACAAACUUCCUACUUGGCAUUUUCUAAAAUUAGUCUGGCCGCGCUCCGGCGGGAACUCCAGACGGCUCCCGACAGUCACCAGCAGCCCAACAGAGGAUUGAGCAUCA
B6: chr8:81863377:81863378:-_ENSMUSG00000031681_ENSMUST00000066091|mus_mus|motif|central (ssRNA)
RNA: GGGAGUUCUACAGUCCGACGAUCAGCAUUUUAGUUGAUUUUUACAACAGAAUGUCACAAUGUAAACUGAAAGGGUUCUUGCGGUCAACCAAGGCUUGUCAGUUUCUCAAUCCAAUAGUUGGUCACAGAGGUCAAGUAUUAUCGCAACAGAGGAUUGAGCAUCA
B7: chr1:231410971:231410972:+_ENSG00000116906_ENST00000366647|hu_mus|FALSE|FALSE (ssRNA)
RNA: GGGAGUUCUACAGUCCGACGAUCCAAAAGGUAUCUGCAAAGUAACUGAUAUGAUUCCACAAAAGGCUUAAAGAGGCUUGUGAGGAACUGUAACACAGCAGUUCCUUUGUCUGUGAGGAUGAUGUCCUUCCCAGCCAUCUGCAUCAACAGAGGAUUGAGCAUCA
B8: chr12:3048583:3048584:+_ENSG00000078246_ENST00000448120|hu_hu|motif|central (ssRNA)
RNA: GGGAGUUCUACAGUCCGACGAUCGGGAGAAGGGCUCCCUGCCUGACUGUUCUCUCAUUCACACGCCAGCUUACUGUCAAAGCGGGAAAGACCGAUGCCAAAGGCCUGUACUGCACAAAGUGGGUAGUUGUAAUCCAGUGUGAACAACAGAGGAUUGAGCAUCA
B9: 69237116_69237236_5343_3pUTR_ENSG00000135679_ENST00000462284|human|control|control (ssRNA)
RNA: GGGAGUUCUACAGUCCGACGAUCAUACAUAAUUGUAAAUAUGGUGUAUGUACUGUUUCACAUACAAUGGGUAUUGAUCAAAUCAGUGUAAUUAGCACACCCAUCAGCUCAAAUAUCAUUUAUUUGUAGCAAGAACAUUCAAUACAACAGAGGAUUGAGCAUCA
B10: 37496388_37496508_563_CDS_ENSMUSG00000026915_ENSMUST00000072186|mouse|control|control (ssRNA)
RNA: GGGAGUUCUACAGUCCGACGAUCGUUAUCUUUAACUGUAUUUAACAGGGUUUCCGUGGGUUUGUCUUUGCACAUUAAGACUAGCUCCAGGUCCAUAUCAUCUUUAAUCAGCAAGCCUUUUGCAACCAAGCCAAUCCUCAUUACCAACAGAGGAUUGAGCAUCA
B11: chr9:14812383:14812384:-_ENSMUSG00000031934_ENSMUST00000164273|mus_mus|mus_mus_mus_hu_True|38_68 (ssRNA)
RNA: GGGAGUUCUACAGUCCGACGAUCAUAGCCCAGGUAGAUACACGCUAACAGUAUAAUGAUGAGUGUCACCAGCCGGCAGCUAAUGUACUUGAUGAUUAAAUGACUAGAAUUUUUCUUUGUCUUCAAGUACUGCUCCACAAUUGGCAACAGAGGAUUGAGCAUCA
B12: chr7:139256351:139256352:-_ENSG00000064393_ENST00000406875|hu_hu|motif|central (ssRNA)
RNA: GGGAGUUCUACAGUCCGACGAUCUCUUUCGAGAUCCACGGACUCUCUCCUAGCUCCUGCUGGCUUCCCUGGCAUCCUUCCGCGGGCAAACAGCCCAGGAAAGACAACGGGCAUUAACAUUUUAAAAAGAAAAAGAAAAAGAAACAACAGAGGAUUGAGCAUCA
B13: chr7:31307748:31307749:-_ENSMUSG00000036882_ENSMUST00000044338|mus_mus|FALSE|FALSE (ssRNA)
RNA: GGGAGUUCUACAGUCCGACGAUCUCUGUACAAGGAUCCUCGGACCUCCCCUCCCCUCCCAUAGGAUGGUGGAGCUGGCCUAUAGAGCAGAAAAGGUUCGGGGGAACCCCAAGGUCCAGGCACCCGAUGGGGAGUAUGUGGACCCAACAGAGGAUUGAGCAUCA
B14: chr6:106732989:106732990:-_ENSMUSG00000005362_ENSMUST00000049675|mus_hu|FALSE|FALSE (ssRNA)
RNA: GGGAGUUCUACAGUCCGACGAUCACUGCCAAUUUUAAGGAGCUGAAUUCUCAAUACAUCAUCAAUAGGAAGACAAGCAGCUACUCUGUAAGAAAAAUCUAUUGGAUUUGAAGGAAGAGAAUCAUCUUUUAGAUUUUCAUCCCACAACAGAGGAUUGAGCAUCA

target: T1, UNK ZnF1-3 (human, UniProt Q9C0B0 31-174); test: nsRBNS (natural sequence RNA bind-n-seq); RBNS binding buffer (assumed for nsRBNS): 25 mM Tris pH 7.5, 150 mM KCl, 3 mM MgCl2, 0.01% Triton X-100, 500 ug/ml BSA, 20 U/ml SUPERase-In, 4 C; UNK is unkempt and MSI1 is Musashi-1; names of the RNAs are library labels; protein concentration not given here; high values mean tight binding
T1 sequence: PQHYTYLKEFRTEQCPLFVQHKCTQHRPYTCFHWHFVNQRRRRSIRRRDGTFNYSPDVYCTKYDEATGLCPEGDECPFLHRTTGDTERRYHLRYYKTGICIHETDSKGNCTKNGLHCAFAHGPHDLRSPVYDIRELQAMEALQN

With B1 as the binder, how does the binding signal read?
Its binding signal is 0.503 enrichment R.

Which binding signal does the source give for B2 here?
Its binding signal is 1.67 enrichment R.

With B3 as the binder, how does the binding signal read?
The binding signal was 0.956 enrichment R.

For B4, which binding signal is on record?
The binding signal was 0.832 enrichment R.

Which binding signal does the source give for B5 here?
The binding signal was 1.32 enrichment R.

How did the binding signal turn out when B6 was run?
The binding signal was 1.83 enrichment R.

For B7, which binding signal is on record?
The binding signal was 0.626 enrichment R.

B8 was tested. Which binding signal did it give?
Its binding signal is 1.5 enrichment R.

How did the binding signal turn out when B9 was run?
The binding signal was 0.79 enrichment R.

Which binding signal does the source give for B10 here?
Its binding signal is 0.663 enrichment R.

How did the binding signal turn out when B11 was run?
The binding signal was 1.12 enrichment R.

Which binding signal does the source give for B12 here?
The binding signal was 2.1 enrichment R.

How did the binding signal turn out when B13 was run?
Its binding signal is 0.935 enrichment R.

B14 was tested. Which binding signal did it give?
Its binding signal is 1.12 enrichment R.
